Laboratory results taken from the supplement of paper PMC8728848.
The other results are listed elsewhere or left out.

What was measured:
Assay in all cases: glycan array binding signal (z-score within array); higher = stronger binding
Conditions in all cases: glycan notation: IUPAC condensed, linker removed
[1] = molecular target: Fuc(a1-2)[GalNAc(a1-3)]Gal(b1-3)GlcNAc(b1-3)GalNAc
How it was run: (§1)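 Glycan array data were curated from 3228 arrays in the Consortium for Functional Glycomics database and kept only where the protein sequence was available. Glycan names were converted to IUPAC-condensed notation, and columns mapping to the same glycan were averaged. The binding signal is a within-array Z-score, averaged across arrays of the same protein sequence at different concentrations or buffers and across linkers. Negative Z-scores can be read as non-binding.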

[2] = molecular target: Fuc(a1-2)[GalNAc(a1-3)]Gal(b1-3)GlcNAc(b1-6)GalNAc
How it was run: as §1

[3] = molecular target: Fuc(a1-2)[GalNAc(a1-3)]Gal(b1-4)Glc
How it was run: as §1

[4] = molecular target: Fuc(a1-2)[GalNAc(a1-3)]Gal(b1-4)GlcNAc
How it was run: as §1

[5] = molecular target: Fuc(a1-2)[GalNAc(a1-3)]Gal(b1-4)GlcNAc(b1-2)Man
How it was run: as §1

[6] = molecular target: Fuc(a1-2)[GalNAc(a1-3)]Gal(b1-4)GlcNAc(b1-2)Man(a1-3)[Fuc(a1-2)[GalNAc(a1-3)]Gal(b1-4)GlcNAc(b1-2)Man(a1-6)]Man(b1-4)GlcNAc(b1-4)GlcNAc
How it was run: as §1

[7] = molecular target: Fuc(a1-2)[GalNAc(a1-3)]Gal(b1-4)GlcNAc(b1-2)Man(a1-3)[Fuc(a1-2)[GalNAc(a1-3)]Gal(b1-4)GlcNAc(b1-2)Man(a1-6)]Man(b1-4)GlcNAc(b1-4)[Fuc(a1-6)]GlcNAc
How it was run: as §1

[8] = molecular target: Fuc(a1-2)[GalNAc(a1-3)]Gal(b1-4)GlcNAc(b1-3)Gal(b1-4)GlcNAc
How it was run: as §1

[9] = molecular target: Fuc(a1-2)[GalNAc(a1-3)]Gal(b1-4)GlcNAc(b1-3)Gal(b1-4)GlcNAc(b1-3)Gal(b1-4)GlcNAc
How it was run: as §1

[10] = molecular target: Fuc(a1-2)[GalNAc(a1-3)]Gal(b1-4)GlcNAc(b1-3)GalNAc
How it was run: as §1

[11] = molecular target: Fuc(a1-2)[GalNAc(a1-3)]Gal(b1-4)GlcNAc(b1-3)[Fuc(a1-2)[GalNAc(a1-3)]Gal(b1-4)GlcNAc(b1-6)]GalNAc
How it was run: as §1

[12] = molecular target: Fuc(a1-2)[GalNAc(a1-3)]Gal(b1-4)GlcNAc(b1-6)GalNAc
How it was run: as §1

[13] = molecular target: Fuc(a1-2)[GalNAc(a1-3)]Gal(b1-4)[Fuc(a1-3)]GlcNAc
How it was run: as §1

[14] = molecular target: Fuc(a1-2)[GalNAc(a1-3)]Gal(b1-4)[Fuc(a1-3)]GlcNAc(b1-3)GalNAc
How it was run: as §1

[15] = molecular target: Fuc(a1-2)[GalNAc(a1-4)]Gal(b1-4)GlcNAc
How it was run: as §1

[16] = molecular target: Fuc(a1-2)[GalNAc(b1-3)]Gal
How it was run: as §1

Fuc(a1-3)GlcNAc = molecular target: Fuc(a1-3)GlcNAc
How it was run: as §1

[17] = molecular target: Fuc(a1-3)[Gal(b1-4)]Glc6S
How it was run: as §1

[18] = molecular target: Fuc(a1-3)[Gal(b1-4)]GlcNAc
How it was run: as §1

[19] = molecular target: Fuc(a1-3)[Gal(b1-4)]GlcNAc(b1-2)Man
How it was run: as §1

[20] = molecular target: Fuc(a1-3)[Gal(b1-4)]GlcNAc(b1-2)Man(a1-3)[Fuc(a1-3)[Gal(b1-4)]GlcNAc(b1-2)Man(a1-6)]Man(b1-4)GlcNAc(b1-4)GlcNAc
How it was run: as §1

[21] = molecular target: Fuc(a1-3)[Gal(b1-4)]GlcNAc(b1-2)Man(a1-3)[Fuc(a1-3)[Gal(b1-4)]GlcNAc(b1-2)Man(a1-6)]Man(b1-4)GlcNAc(b1-4)[Fuc(a1-6)]GlcNAc
How it was run: as §1

[22] = molecular target: Fuc(a1-3)[Gal(b1-4)]GlcNAc(b1-3)Gal(b1-3)[Fuc(a1-4)]GlcNAc
How it was run: as §1

[23] = molecular target: Fuc(a1-3)[Gal(b1-4)]GlcNAc(b1-3)Gal(b1-4)[Fuc(a1-3)]GlcNAc
How it was run: as §1

[24] = molecular target: Fuc(a1-3)[Gal(b1-4)]GlcNAc(b1-3)Gal(b1-4)[Fuc(a1-3)]GlcNAc(b1-3)Gal(b1-4)[Fuc(a1-3)]GlcNAc
How it was run: as §1

[25] = molecular target: Fuc(a1-3)[Gal(b1-4)]GlcNAc(b1-3)GalNAc
How it was run: as §1

[26] = molecular target: Fuc(a1-3)[Gal(b1-4)]GlcNAc(b1-6)GalNAc
How it was run: as §1

[27] = molecular target: Fuc(a1-3)[Gal(b1-4)]GlcNAc(b1-6)[Gal(b1-3)GlcNAc(b1-3)]Gal(b1-4)Glc
How it was run: as §1

[28] = molecular target: Fuc(a1-3)[Gal(b1-4)]GlcNAc6S
How it was run: as §1

[29] = molecular target: Fuc(a1-3)[Gal3S(b1-4)]Glc
How it was run: as §1

[30] = molecular target: Fuc(a1-3)[Gal3S(b1-4)]GlcNAc
How it was run: as §1

[31] = molecular target: Fuc(a1-3)[Gal3S(b1-4)]GlcNAc6S
How it was run: as §1

[32] = molecular target: Fuc(a1-3)[GalNAc(b1-4)]GlcNAc
How it was run: as §1

[33] = molecular target: Fuc(a1-3)[GalNAc(b1-4)]GlcNAc6S
How it was run: as §1

Fuc(a1-4)GlcNAc = molecular target: Fuc(a1-4)GlcNAc
How it was run: as §1

Fuc(b1-3)GlcNAc = molecular target: Fuc(b1-3)GlcNAc
How it was run: as §1

Gal(a1-2)Gal = molecular target: Gal(a1-2)Gal
How it was run: as §1

B1: CC1G-11630 (Coprinopsis cinerea), A8P462 (protein)
chain: MTTEAKIKLKAVVYWELVFDYDNSSNTGEITQSYTVKISQTSTRSTFASEVSTTTIDTLTKNNQEVDVGASYGAISANVSASWEHSEEVNNMLEKTTQTSTEDTYTVETEETRSYTIGPGGMLSLFQKHFSGPGMHVAFDVFTTDLELAKERTEIDIDVDVEAIRFVREIRVVYTDIMSEAPGDHVREINGKNPDINYGFNGKFVWLVPEQTRKTAQALTNVEFVSQAESDDRYWDLAAGAGGSNRYLIPVYDTNNKDKIYELALWRSDSYITHDKVKAAGWSGTTGDINSGRGGTYLNLVWKTRHAY
glycan array binding signal (z-score) [1]: 0.144 | glycan array binding signal (z-score) [2]: -0.233 | glycan array binding signal (z-score) [3]: -0.143 | glycan array binding signal (z-score) [4]: -0.601 | glycan array binding signal (z-score) [5]: -0.807 | glycan array binding signal (z-score) [6]: -0.357 | glycan array binding signal (z-score) [7]: 1 | glycan array binding signal (z-score) [8]: -0.726 | glycan array binding signal (z-score) [9]: -0.061 | glycan array binding signal (z-score) [10]: -0.266 | glycan array binding signal (z-score) [11]: 0.164 | glycan array binding signal (z-score) [12]: -0.842 | glycan array binding signal (z-score) [13]: -0.42 | glycan array binding signal (z-score) [14]: 0.132 | glycan array binding signal (z-score) [15]: -0.63 | glycan array binding signal (z-score) [16]: -0.342 | glycan array binding signal (z-score) (Fuc(a1-3)GlcNAc): -0.254 | glycan array binding signal (z-score) [17]: 0.657 | glycan array binding signal (z-score) [18]: -0.213 | glycan array binding signal (z-score) [19]: 0.267 | glycan array binding signal (z-score) [20]: -0.255 | glycan array binding signal (z-score) [21]: -0.199 | glycan array binding signal (z-score) [22]: -0.651 | glycan array binding signal (z-score) [23]: -0.123 | glycan array binding signal (z-score) [24]: 0.366 | glycan array binding signal (z-score) [25]: -0.182 | glycan array binding signal (z-score) [26]: 0.318 | glycan array binding signal (z-score) [27]: -0.585 | glycan array binding signal (z-score) [28]: -0.085 | glycan array binding signal (z-score) [29]: 0.09 | glycan array binding signal (z-score) [30]: 0.48 | glycan array binding signal (z-score) [31]: 0.066 | glycan array binding signal (z-score) [32]: 0.28 | glycan array binding signal (z-score) [33]: 0.139 | glycan array binding signal (z-score) (Fuc(a1-4)GlcNAc): -0.863 | glycan array binding signal (z-score) (Fuc(b1-3)GlcNAc): -0.161 | glycan array binding signal (z-score) (Gal(a1-2)Gal): -0.636
